Measured values reported in the BET-seq Pho4 binding data (Le et al. 2018).
Some of the results follow. These are noisy estimates, calculated here from bound and input reads.

What follows are sequences tested against T1, Pho4 (S. cerevisiae) (UniProt P07270) (assay: relative binding free energy (BET-seq); higher = weaker binding). Conditions: reference: library average.
T1 sequence: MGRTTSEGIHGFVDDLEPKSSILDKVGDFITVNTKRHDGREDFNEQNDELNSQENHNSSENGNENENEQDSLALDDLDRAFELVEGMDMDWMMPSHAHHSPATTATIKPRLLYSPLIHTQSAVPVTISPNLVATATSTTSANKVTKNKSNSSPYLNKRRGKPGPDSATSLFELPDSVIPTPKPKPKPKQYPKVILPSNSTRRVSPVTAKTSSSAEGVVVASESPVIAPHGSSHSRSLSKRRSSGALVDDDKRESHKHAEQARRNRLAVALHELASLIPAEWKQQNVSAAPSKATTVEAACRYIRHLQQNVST

Sequence | relative binding free energy [kcal/mol]
TTAGTCACGTGTGGCC | 0.09
TGTGACACGTGTGTGG | -0.06
CTGAGCACGTGAGGTT | 0.18
TATGTCACGTGTAGAG | 0.06
CGGTCCACGTGTGGGC | 0.11
ATTGACACGTGTTCGT | 0.01
TCGGGCACGTGGAACG | 0.07
GCTGTCACGTGTTGGT | 0.15
GTAAACACGTGTGCTT | 0.07
GAGATCACGTGCTGTT | 0.1
TGATCCACGTGGGGGA | -0.19
TAAGCCACGTGGGGAG | -0.2
ATATTCACGTGCGCTT | 0.18
ACGTACACGTGTGTGA | 0.12
AGTGTCACGTGGAATA | 0.08
TTTCACACGTGAATTT | 0.27
TTTTTCACGTGCTTCG | 0.33
ATGGGCACGTGTACTG | -0.08
TATTTCACGTGATGGC | 0.42
ACGGGCACGTGGGAAT | -0.11
GTTGTCACGTGTAAAG | 0.29
TAAAGCACGTGGGGCT | -0.22
ACTTTCACGTGAGTTG | 0.38
TCAGTCACGTGGGAGG | 0.01
AGTTACACGTGGGGAC | -0.05

Sequence | relative binding free energy [kcal/mol]
GTTAGCACGTGGGAGA | -0.08
TGCGACACGTGGGGAT | -0.06
TGGGGCACGTGATAAG | -0.11
TAGTACACGTGGATTA | 0.09
GGTAGCACGTGACTGT | -0.03
GGGGGCACGTGTACTT | -0.1
GGAGTCACGTGTAAGG | 0.15
AGGTGCACGTGAGGAC | 0.16
GGGTTCACGTGTTAGA | 0.33
ACGAGCACGTGTTGTT | -0.11
GATTGCACGTGTAGGA | 0.11
CAGTTCACGTGAGAGG | 0.43
TTGGTCACGTGAGCGA | 0.15
GGTATCACGTGATCTG | 0.14
TGAAACACGTGTTTAT | 0.08
CTGGTCACGTGCTGTA | 0.14
TACGGCACGTGGAGAG | -0.07
GGTCGCACGTGAGTTT | 0.18
GTAATCACGTGAGGGT | 0.38
ATAGTCACGTGATCGG | 0.2
AAGGACACGTGGAGTG | -0.16
ATTTTCACGTGGTCTT | 0.17
AGGGGCACGTGTGCGC | -0.1
GTGGCCACGTGGTTAG | -0.03
CGGGTCACGTGACGTG | 0.12

Sequence | relative binding free energy [kcal/mol]
AAATGCACGTGGTTTA | -0.12
AATTGCACGTGTCTGG | 0.06
ATCTACACGTGTTTTG | 0
CGTTTCACGTGTTTAT | 0.35
ATTATCACGTGTGCGC | 0.28
ATCTTCACGTGATGTT | 0.4
AGGTACACGTGAGAGT | 0.44
ATGAGCACGTGTTGGA | -0.11
GGGTACACGTGGTGTC | 0
AAGGGCACGTGCGGAT | -0.17
TCAGGCACGTGTGAGG | -0.04
GAGGTCACGTGATGGA | 0.39
TAGGTCACGTGCTTAG | 0.03
AAGATCACGTGTAGTG | 0.04
CAGTTCACGTGTTGGG | 0.3
TGAAACACGTGGTTTT | 0.11
TAACTCACGTGTTTGC | 0.35
GAGGACACGTGAGTTT | 0.33
GGTTACACGTGTCCTT | 0.33
TGGACCACGTGGTTTA | -0.03
AGGGACACGTGTTTTT | 0.12
AGAATCACGTGAATGT | 0.34
GGGTGCACGTGGGGTG | -0.07
GCGGTCACGTGTTGGC | 0.2
TTTACCACGTGGGTGA | -0.24

Sequence | relative binding free energy [kcal/mol]
AGTTTCACGTGTGCGC | 0.25
GGGAGCACGTGAGCGA | 0.32
TTTTTCACGTGCACGG | 0.19
AGCATCACGTGGGTAT | 0
GTTCACACGTGATGTG | 0.31
GTTTTCACGTGTCTCT | 0.26
ATGGACACGTGCGGCT | 0.08
AAAGGCACGTGGTGTA | -0.15
TTATACACGTGTTGTC | -0.03
TGCCTCACGTGTGGAT | 0.19
TGGCCCACGTGGAGGT | -0.2
TATTGCACGTGATGGT | 0.24
TGATGCACGTGTGTAA | -0.03
GAATGCACGTGTTGTA | 0.03
ATGTTCACGTGTGGAA | 0.25
CAATGCACGTGAGGGA | 0.25
ATATTCACGTGAGGGC | 0.51
GGTTGCACGTGAGCTG | 0.24
GGGTCCACGTGGCTTG | 0.03
AGGGACACGTGATGGA | 0.16
GGAGGCACGTGTCGTG | 0.03
CGGCTCACGTGATGGT | 0.28
TCATACACGTGTGATT | 0.21
TTCTACACGTGGGGAG | -0.1
AGGACCACGTGAGGGT | 0.16

Sequence | relative binding free energy [kcal/mol]
TTTACCACGTGGTTAT | -0.15
CTTGGCACGTGGGTTT | -0.23
GTGATCACGTGGCGTG | 0.04
TGTGTCACGTGCTGAA | -0.03
TAGATCACGTGTGGTA | 0.03
GGATGCACGTGTACGT | 0.09
GTGATCACGTGGCGTT | 0.1
AATAGCACGTGTGATA | 0.01
TTTACCACGTGGTCGT | -0.08
AGGTTCACGTGAGGAC | 0.38
GTGAACACGTGCGTGG | -0.1
ATGTGCACGTGATGAG | -0.01
GCTATCACGTGGATGG | 0.16
AGTGGCACGTGGTGCC | -0.17
TGCACCACGTGGTGGT | -0.05
TGGTCCACGTGGGTCA | -0.04
CGTGTCACGTGTCGTT | 0
GTGTGCACGTGTCAAT | -0.01
AGCTTCACGTGGTTTT | 0.22
AGTTGCACGTGAGGGT | 0.09
TGTAACACGTGTAGAT | 0.12
AGGCTCACGTGAAGCG | 0.53
ATAGGCACGTGTGTGT | -0.12
AGTTTCACGTGACAGG | 0.4
TGCTTCACGTGTAATG | 0.18

Sequence | relative binding free energy [kcal/mol]
TGAGCCACGTGTTTGG | 0.02
ATAATCACGTGAATTT | 0.24
TAGGTCACGTGGGTGA | -0.05
AGGGGCACGTGTATGT | -0.05
TATGCCACGTGGGGCT | -0.22
ATGGTCACGTGGTGGT | 0.09
GGGATCACGTGTGACT | 0.31
TGGTACACGTGGGAAA | 0.12
CTTTACACGTGATTGT | 0.29
GCGGGCACGTGGGGGC | -0.23
ATATACACGTGGTCGG | -0.15
TTTGGCACGTGTGGGA | -0.05
CCGTGCACGTGATGGA | 0.31
GTATGCACGTGCGGTC | 0.22
TTGGACACGTGCGGGC | -0.05
TCGTACACGTGGGGAG | -0.07
GTAGACACGTGTATGT | 0.1
TGGTACACGTGAAATA | 0.33
ATAAGCACGTGTCGGT | -0.09
CCGGGCACGTGTTGGT | -0.14
GTGTTCACGTGGGTGC | 0.23
